# Laboratory results from PubChem BioAssay (Tox21).
# Inconclusive means that the source gave no clear call. Such entries were picked first, then a sample of the others. For some of these results: Potencies of inconclusive entries are doubtful fits and often do not repeat. Calls of active or inactive are those of the source. Unless noted, calls follow the shape of the dose curve; as a rule, active = well fitted curve in the direction sought with a large enough effect in the repeat runs; inconclusive = weak or mixed curves; inactive = no such curve, though single readings can be large; an effect the other way counts as inactive or inconclusive.
# Experiments:
# [1] = qHTS assay to identify small molecule antagonists of the estrogen related receptor (ERR) signaling pathway from Tox21 library - cell viability counter screen (AID 1224834); also: nearly all actives have a fitted effect of over 30% in size; also: potency is read from the fitted curve at half-maximal effect
# Procedure, shortened: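 Compounds in DMSO were pinned onto ERR cells that had been incubated for 6 h, and the plates were held at 37 C for 17.5 h. CellTiter-Fluor reagent was then added and fluorescence was measured after 30 min.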
# [2] = target: Luciferin 4-monooxygenase (Photinus pyralis) (UniProt P08659); assay: qHTS assay to identify small molecule inhibitors of firefly luciferase (AID 1224835); also: nearly all actives have a fitted effect of over 25% in size; also: potency is read from the fitted curve at half-maximal effect
# Procedure, shortened: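 Inhibition of purified Photinus luciferase is measured by luminescence. Substrate levels (D-luciferin, ATP) sit at their KM values. Each compound is tested in a concentration series.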
# [3] = qHTS RealTime-Glo MT Cell Viability Assay in HEK293 cells - 32 hour (AID 1224868); also: nearly all actives have a fitted effect of over 50% in size; also: potency is read from the fitted curve at half-maximal effect
# Procedure, shortened: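 Quantitative high-throughput screen of the Tox21 10K library in HEK293: cells and RealTime-Glo reagents plated together, compound added at 5 h, luminescence monitored through 40 h at 37 C.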
# [4] = A CellTox Green Cytotoxicity Assay to monitor cytotoxicity in HEK293 cells - 0 hour (AID 1224869); also: potency is read from the fitted curve at half-maximal effect; nearly all actives have a fitted effect of over 50% in size
# Procedure, shortened: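 Dead-cell fluorescence measured kinetically: asymmetric cyanine dye, HEK293, 600 cells/well, 5 h settle, 23 nL cpd/DMSO, 37 C, reads 0–40 h every 8 h.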
# [5] = qHTS assay to identify small molecule agonists of the constitutive androstane receptor (CAR) signaling pathway - cell viability counter screen (AID 1224836); also: potency is read from the fitted curve at half-maximal effect; nearly all actives have a fitted effect of over 45% in size
# Procedure, shortened: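 Viability read-out: CellTiter-Fluor fluorescence after 23 h compound exposure at 37 C/5% CO2 in double-stable HepG2-CYP2B6-hCAR cells, with PK11195 present at 0.75 uM final; compounds tested in 15-point titration.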
# [6] = qHTS assay to identify small molecule antagonists of the constitutive androstane receptor (CAR) signaling pathway - cell viability counter screen (AID 1224837); also: potency is read from the fitted curve at half-maximal effect; nearly all actives have a fitted effect of over 45% in size
# Procedure, shortened: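 Cells are seeded, rested 4 hr at 37 C/5% CO2, dosed with compound (15-point series) and 50 nM CITCO, incubated a further 23 hr, and then CellTiter-Fluor reagent is added before fluorescence is read. The line is HepG2 with stable hCAR and CYP2B6-2.2kb.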
# [7] = qHTS assay to identify small molecule antagonists of the estrogen related receptor signaling pathway with the pleiotropic PPARgamma coactivator (PGC) from Tox21 10K library - cell viability counter screen (AID 1224840; active = well fitted cell-killing curve with a large enough effect in the repeat runs, not every such curve was filed as active; inconclusive = weak or mixed curves, or effect the other way; inactive = no such curve, though single readings can be large or run the other way; also: potency is read from the fitted curve at half-maximal effect; nearly all actives have a fitted effect of over 40% in size)
# Procedure, shortened: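 Cell viability is measured by CellTiter-Fluor fluorescence in PGC/ERR cells that receive compounds after a 6-hour attachment period and are then incubated 17.5 hours at 37 C.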
# [8] = qHTS assay to identify small molecule agonists of the hypoxia (HIF-1) signaling pathway (AID 1224846; active = well fitted activation curve with a large enough effect in the signal ratio in the repeat runs, not every such curve was filed as active; inconclusive = weak or mixed curves; the % refers to the signal ratio; also: potency is read from the fitted curve at half-maximal effect); conditions: HRE-bla ME-180 cells, beta-lactamase ratio, 17 h; activation: at 76.8 µM (top of the series) unless noted
# Procedure, shortened: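 Agonist mode reporter screen. ME-180 cells stably expressing bla under HRE control received test compounds in DMSO for 17 hrs (37C, 5% CO2), and beta-lactamase activity was then detected with the CCF4-AM FRET substrate.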
# [9] = qHTS assay to identify small molecule agonists of H2AX (AID 1224845; active = well fitted activation curve with a large enough effect in the signal ratio in the repeat runs, not every such curve was filed as active; inconclusive = weak or mixed curves; the % refers to the signal ratio; also: potency is read from the fitted curve at half-maximal effect; as to activation (H2AX phosphorylation): % is scaled to controls: 0 for no effect and ±100 for the full control effect); conditions: CHO-K1 phospho-H2AX Ser139 HTRF, 3 h; activation (H2AX phosphorylation): at 154 µM (top of the series) unless noted
# Procedure, shortened: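 Phospho-H2AX Ser139 measured by HTRF (ex 320 nm; em 665 and 620 nm) after 24 hr antibody incubation. Compounds, 15 concentrations, 0.76% DMSO, were applied to CHO-K1 cells for 3hr at 37C before lysis.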
# [10] = qHTS assay to identify small molecule agonists of H2AX - cell viability counter screen (AID 1224847; calls by dose curve; also: potency is read from the fitted curve at half-maximal effect; nearly all actives have a fitted effect of over 30% in size)
# Procedure, shortened: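 CHO-K1 wt, 1000 cells/well, o/n 37C; cpds 15 conc, 3 h 37C, 0.76% DMSO; CellTiter-Glo, 30 min RT, luminescence.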
# [11] = target: Thyrotropin receptor (Homo sapiens) (UniProt P16473); assay: qHTS assay to identify small molecule agonists of the thyroid stimulating hormone receptor (TSHR) signaling pathway (AID 1224843; calls by dose curve; also: % is scaled to controls: 0 for no effect and ±100 for the full control effect; nearly all actives have a fitted effect of over 45% in size); conditions: TSHR-HEK293 cells, cAMP HTRF, agonist mode, 30 min; activation: at 92.4 µM (top of the series) unless noted
# Procedure, shortened: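 Agonist activity read as cAMP rise via d2/cryptate HTRF competition, 1 h room-temperature detection, in HEK293 cells expressing TSHR. Fifteen-point titrations, each run in triplicate, with a 30 min room-temperature incubation beforehand.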
# [12] = qHTS assay to identify small molecule agonists of the hypoxia (HIF-1) signaling pathway - cell viability counter screen (AID 1224844; calls by dose curve; also: potency is read from the fitted curve at half-maximal effect; nearly all actives have a fitted effect of over 50% in size)
# Procedure, shortened: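 Viability counter screen: HRE-bla ME-180 cells plated 5 hrs before compound addition, treated 17 hrs at 37C and 5% CO2, then CellTiter-Glo added after the FRET reporter read; luminescence after 30 min.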
# [13] = qHTS assay to identify small molecule agonists of the estrogen related receptor (ERR) signaling pathway from Tox21 library (AID 1224849; calls by dose curve; also: % is scaled to controls: 0 for no effect and ±100 for the full control effect; nearly all actives have a fitted effect of over 15% in size); conditions: ERR reporter cell line, ONE-Glo luciferase, 18 h; at 92.4 µM (top of the series)
# Procedure, shortened: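 Quantitative HTS in agonist format: NTP ERR cell line, compounds transferred in DMSO after 6 h plating, 18 h incubation at 37 C, ONE-Glo luminescence endpoint.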
# [14] = target: Nuclear receptor subfamily 1 group I member 3 (Homo sapiens) (UniProt Q14994); assay: qHTS assay to identify small molecule antagonists of the constitutive androstane receptor (CAR) signaling pathway (AID 1224838);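 also: HepG2 cells stably expressing hCAR with CYP2B6 luciferase reporter stimulated by CITCO; nearly all actives have a fitted effect of over 40% in size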; also: potency is read from the fitted curve at half-maximal effect
# Procedure, shortened: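 Luminescence from a CYP2B6-2.2kb promoter reporter in hCAR-expressing HepG2 cells reflects CAR signaling. Cells received compounds at 15 concentrations and 50 nM CITCO (final), then incubated 24 h at 37 C/5% CO2.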
# [15] = target: Nuclear receptor subfamily 1 group I member 3 (Homo sapiens) (UniProt Q14994); assay: qHTS assay to identify small molecule agonists of the constitutive androstane receptor (CAR) signaling pathway (AID 1224839); also: nearly all actives have a fitted effect of over 15% in size; also: potency is read from the fitted curve at half-maximal effect;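 as to activation: HepG2 cells stably carrying human CAR and a CYP2B6 luciferase reporter; % is scaled to controls: 0 for no effect and ±100 for the full control effect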
# Procedure, shortened: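 Luminescence read-out (ONE-Glo, 30 min, room temperature) from double-stable HepG2-CYP2B6-hCAR cells exposed 24 h to 15-point compound series in presence of 0.75 uM PK11195 final.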
# [16] = qHTS assay to identify small molecule antagonists of the estrogen related receptor (ERR) signaling pathway from Tox21 library (AID 1224848); also: potency is read from the fitted curve at half-maximal effect; nearly all actives have a fitted effect of over 50% in size
# Procedure, shortened: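 Luciferase luminescence (ONE-Glo, 30 min room temperature) was the read-out. Cells of the NTP-supplied ERR line, 2,000 per well, were given 6 h at 37 C before compound addition in DMSO and 18 h exposure at 37 C.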
# [17] = qHTS RealTime-Glo MT Cell Viability Assay in HepG2 cells - 24 hour (AID 1224867)
# Procedure, shortened: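 Compound treatment began 5 h after plating HepG2 cells (600/well) with NanoLuc luciferase and prosubstrate. Plates stayed at 37 C for 40 h; luminescence was captured at six time points, 0 h through 40 h.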
# Tags tell the direction and shape of the fitted curve or compound fluorescence and quenching.
# Chain of UniProt Q14994 (Q14994 whole entry, looked up): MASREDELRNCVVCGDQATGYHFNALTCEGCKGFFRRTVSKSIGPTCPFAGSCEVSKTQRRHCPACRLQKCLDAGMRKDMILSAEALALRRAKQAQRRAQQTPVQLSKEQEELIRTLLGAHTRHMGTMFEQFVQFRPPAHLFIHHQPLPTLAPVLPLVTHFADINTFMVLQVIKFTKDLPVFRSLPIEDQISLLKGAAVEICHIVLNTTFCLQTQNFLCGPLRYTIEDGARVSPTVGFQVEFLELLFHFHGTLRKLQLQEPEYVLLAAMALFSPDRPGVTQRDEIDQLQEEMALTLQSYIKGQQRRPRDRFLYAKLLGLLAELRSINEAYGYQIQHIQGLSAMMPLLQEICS
# Chain of UniProt P08659 (P08659 whole entry, looked up): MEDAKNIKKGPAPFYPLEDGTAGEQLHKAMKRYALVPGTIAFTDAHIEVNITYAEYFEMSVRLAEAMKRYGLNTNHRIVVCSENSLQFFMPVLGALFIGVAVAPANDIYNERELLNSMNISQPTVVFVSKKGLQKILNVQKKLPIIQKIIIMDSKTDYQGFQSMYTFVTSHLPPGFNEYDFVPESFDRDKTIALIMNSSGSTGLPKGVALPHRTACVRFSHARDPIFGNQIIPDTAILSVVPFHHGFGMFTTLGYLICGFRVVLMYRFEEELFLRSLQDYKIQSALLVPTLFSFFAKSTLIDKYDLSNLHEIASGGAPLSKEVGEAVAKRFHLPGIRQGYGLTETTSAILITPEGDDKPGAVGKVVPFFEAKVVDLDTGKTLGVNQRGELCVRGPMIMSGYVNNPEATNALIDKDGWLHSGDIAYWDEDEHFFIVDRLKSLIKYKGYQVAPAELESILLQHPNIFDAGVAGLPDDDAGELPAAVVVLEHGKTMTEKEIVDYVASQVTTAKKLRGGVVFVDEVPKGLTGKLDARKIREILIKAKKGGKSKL
# Chain of UniProt P16473 (P16473 whole entry, looked up): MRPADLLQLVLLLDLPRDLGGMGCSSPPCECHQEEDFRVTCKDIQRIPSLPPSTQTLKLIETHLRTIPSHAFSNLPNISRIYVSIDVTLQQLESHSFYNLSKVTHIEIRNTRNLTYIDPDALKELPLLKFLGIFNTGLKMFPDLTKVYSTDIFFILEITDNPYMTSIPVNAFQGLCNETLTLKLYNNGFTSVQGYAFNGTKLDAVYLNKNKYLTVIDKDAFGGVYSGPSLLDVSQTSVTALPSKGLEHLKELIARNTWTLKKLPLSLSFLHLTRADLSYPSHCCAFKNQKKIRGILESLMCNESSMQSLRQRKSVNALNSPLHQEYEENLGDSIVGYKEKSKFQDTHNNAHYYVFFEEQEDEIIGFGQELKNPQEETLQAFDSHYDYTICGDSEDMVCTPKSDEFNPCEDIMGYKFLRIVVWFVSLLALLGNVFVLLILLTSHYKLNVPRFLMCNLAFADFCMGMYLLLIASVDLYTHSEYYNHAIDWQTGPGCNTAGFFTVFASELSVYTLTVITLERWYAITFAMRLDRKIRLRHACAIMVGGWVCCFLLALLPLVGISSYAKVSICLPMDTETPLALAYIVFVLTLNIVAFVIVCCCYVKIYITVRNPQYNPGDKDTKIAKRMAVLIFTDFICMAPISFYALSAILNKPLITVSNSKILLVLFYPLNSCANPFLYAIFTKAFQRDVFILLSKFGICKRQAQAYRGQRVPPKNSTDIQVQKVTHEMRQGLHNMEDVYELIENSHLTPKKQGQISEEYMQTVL
compound,measurement,setting,value
C=CCCCCCCCCC(=O)O,Potency,[1],inactive
same,Potency,[2],"inconclusive: 89.4 µM [inhibitor, single point]"
same,Potency,[3],inactive
CC(=O)c1ccc2c(c1)N(CCCN(C)C)c1ccccc1S2,Potency,[1],"inconclusive: 29.8 µM [cytotoxic, partial curve]"
same,Potency,[2],inactive
same,Potency,[3],"inconclusive: 10.7 µM [cytotoxic, partial curve, poor fit]"
CC(S)C(=O)NCC(=O)O (stereo unspecified),Potency,[1],inactive
same,Potency,[2],"inconclusive: 3.47 µM [inhibitor, full curve]"
same,Potency,[4],"inconclusive: 23.9 µM [activator, single point]"
CCc1cc(C2=C(C(=O)O)N(c3ccccc3C(F)(F)F)S(=O)(=O)c3ccccc32)cc2c1OCO2,Potency,[1],active: 7.61 µM
same,Potency,[5],inconclusive: 24.1 µM [cytotoxic]
same,Potency,[6],"inconclusive: 17 µM [cytotoxic, partial curve]"
same,Potency,[7],inconclusive: 24.1 µM [cytotoxic]
c1ccc2c(c1)-c1ccc3ccc4cccc5cc-2c1c3c45,Potency,[1],"inconclusive: 15 µM [rising, partial curve]"
same,Potency,[5],"inconclusive: 23.7 µM [rising, partial curve]"
same,Potency,[6],"inconclusive: 29.8 µM [rising, partial curve]"
same,Potency,[7],"inconclusive: 21.1 µM [rising, partial curve]"
same,Potency,[8],"inconclusive: 23.9 µM [fluorescent, partial curve]"
same,Potency,[4],"inconclusive: 23.9 µM [activator, partial curve, poor fit]"
CCCCCCOc1ccc(N)cc1,Potency,[1],"inconclusive: 54.5 µM [cytotoxic, partial curve]"
same,Potency,[2],active: 31.7 µM
same,Potency,[9],active: 56.6 µM
same,Potency,[10],"inconclusive: 113 µM [cytotoxic, single point]"
same,Potency,[3],"inconclusive: 49 µM [cytotoxic, partial curve]"
O=C1c2ccccc2C(=O)C1c1ccc2cc(S(=O)(=O)O)cc(S(=O)(=O)O)c2n1,Potency,[1],active: 29.5 µM
same,Potency,[5],active: 66.1 µM
same,Potency,[7],active: 33.1 µM
same,activation,[11],inconclusive: -6.68%
same,Potency,[12],"inconclusive: 23.7 µM [cytotoxic, partial curve]"
same,Potency,[9],"inconclusive: 137 µM [cytotoxic, partial curve, poor fit]"
same,Potency,[8],"inconclusive: 21.1 µM [rising, full curve]"
same,"activity change, positive = activation",[13],active: 54.8%
same,Potency,[3],inactive
CCn1nc(Cc2ccccc2)cc1C1CCN(C[C@H]2C[C@H](N(C)[C@@H](C(=O)O)C(C)C)C[C@@H]2c2cccc(F)c2)CC1,Potency,[1],"inconclusive: 68.6 µM [cytotoxic, partial curve, poor fit]"
same,Potency,[6],"inconclusive: 54.5 µM [cytotoxic, partial curve, poor fit]"
same,Potency,[14],inactive
same,Potency,[15],inactive
same,Potency,[9],inactive
same,Potency,[16],"inconclusive: 61.1 µM [inhibitor, partial curve]"
O=C(c1ccc(O)cc1)c1ccc(O)c(O)c1O,Potency,[1],"inconclusive: 54.7 µM [cytotoxic, partial curve]"
same,Potency,[5],"inconclusive: 48.8 µM [cytotoxic, partial curve, poor fit]"
same,Potency,[6],"inconclusive: 109 µM [cytotoxic, partial curve, poor fit]"
same,Potency,[15],"inconclusive: 61.4 µM [activator, partial curve]"
same,activation,[11],inconclusive: -1.33%
same,Potency,[9],"inconclusive: 56.9 µM [falling, partial curve]"
COc1cc2c(N3CCN(C(=O)Nc4ccc(OC(C)C)cc4)CC3)ncnc2cc1OCCCN1CCCCC1,Potency,[1],active: 29.8 µM
same,Potency,[6],"inconclusive: 18.8 µM [cytotoxic, partial curve]"
same,Potency,[14],active: 15 µM
same,Potency,[12],inconclusive: 21.3 µM [cytotoxic]
same,Potency,[16],inconclusive: 33.5 µM [inhibitor]
same,Potency,[3],active: 9.52 µM
CC[C@H]1CC[C@H](NCc2cc3c(cc2OC)[C@H]2C[C@H]2C(=O)N3C)[C@H](c2ccccc2)N1,Potency,[1],"inconclusive: 19.3 µM [cytotoxic, partial curve]"
same,Potency,[5],"inconclusive: 30.6 µM [cytotoxic, partial curve]"
same,Potency,[6],inconclusive: 27.3 µM [cytotoxic]
same,Potency,[7],"inconclusive: 13.7 µM [cytotoxic, full curve]"
same,Potency,[17],inactive
same,Potency,[3],active: 19.5 µM
CCCCOc1cc(C(=O)NCCN(CC)CC)c2ccccc2n1,Potency,[1],"inconclusive: 33.5 µM [cytotoxic, single point]"
same,Potency,[5],"inconclusive: 33.5 µM [cytotoxic, single point]"
same,Potency,[6],"inconclusive: 29.8 µM [cytotoxic, partial curve]"
same,Potency,[3],active: 21.3 µM
